This note sets out measurements from publication PMC9810599.

Protein sequences, listed by entry. Tags and fused reporters are not part of them. Lines headed by an entry give the natural chain unless they say otherwise; changes in a name come on top. Residues count along the entry.
UniProt P0CS90, residues 24-654: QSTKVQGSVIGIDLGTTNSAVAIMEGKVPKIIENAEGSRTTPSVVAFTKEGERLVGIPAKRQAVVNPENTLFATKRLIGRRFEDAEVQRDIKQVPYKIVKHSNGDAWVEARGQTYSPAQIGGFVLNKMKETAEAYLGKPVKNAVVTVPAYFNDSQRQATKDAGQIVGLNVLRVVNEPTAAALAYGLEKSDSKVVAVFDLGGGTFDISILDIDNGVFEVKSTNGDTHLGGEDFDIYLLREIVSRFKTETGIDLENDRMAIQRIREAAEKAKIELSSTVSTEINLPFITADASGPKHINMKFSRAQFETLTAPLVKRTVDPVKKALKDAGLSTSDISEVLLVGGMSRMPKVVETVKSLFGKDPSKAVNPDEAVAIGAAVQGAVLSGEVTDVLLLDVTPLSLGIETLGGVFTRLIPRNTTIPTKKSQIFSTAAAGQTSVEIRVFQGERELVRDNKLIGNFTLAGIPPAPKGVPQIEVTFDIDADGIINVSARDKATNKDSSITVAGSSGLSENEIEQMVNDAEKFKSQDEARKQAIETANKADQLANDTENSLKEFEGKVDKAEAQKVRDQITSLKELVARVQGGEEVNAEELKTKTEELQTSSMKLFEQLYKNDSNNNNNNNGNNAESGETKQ
UniProt P07251, residues 36-545: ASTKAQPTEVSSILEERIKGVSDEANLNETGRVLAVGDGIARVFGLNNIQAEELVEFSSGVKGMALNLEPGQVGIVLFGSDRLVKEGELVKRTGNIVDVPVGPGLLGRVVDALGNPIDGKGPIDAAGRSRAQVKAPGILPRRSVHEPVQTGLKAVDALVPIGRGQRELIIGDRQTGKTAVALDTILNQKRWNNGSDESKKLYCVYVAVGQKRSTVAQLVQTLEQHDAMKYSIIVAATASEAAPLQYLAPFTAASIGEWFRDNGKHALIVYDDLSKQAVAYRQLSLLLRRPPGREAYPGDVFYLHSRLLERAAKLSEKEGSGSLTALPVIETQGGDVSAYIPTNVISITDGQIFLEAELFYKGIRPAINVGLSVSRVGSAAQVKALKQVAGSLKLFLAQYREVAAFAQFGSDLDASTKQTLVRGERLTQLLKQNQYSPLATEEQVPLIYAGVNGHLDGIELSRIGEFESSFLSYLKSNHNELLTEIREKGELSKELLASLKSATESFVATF

The labels stand for the following.
T1: His-tagged Ina22 (Ina22His) (S. cerevisiae) (UniProt P40576)
T1 sequence: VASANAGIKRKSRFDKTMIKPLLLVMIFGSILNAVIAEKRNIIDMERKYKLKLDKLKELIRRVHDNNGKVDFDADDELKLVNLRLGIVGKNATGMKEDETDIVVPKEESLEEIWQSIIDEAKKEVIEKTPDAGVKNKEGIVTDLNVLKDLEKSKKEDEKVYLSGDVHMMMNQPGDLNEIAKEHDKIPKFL

T2: His-tagged Ina17 (Ina17His) (S. cerevisiae) (UniProt Q02888)
T2 sequence: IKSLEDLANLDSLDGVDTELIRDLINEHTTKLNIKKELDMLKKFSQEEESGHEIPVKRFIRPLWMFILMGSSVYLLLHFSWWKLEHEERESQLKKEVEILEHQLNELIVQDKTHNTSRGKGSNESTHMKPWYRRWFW

T3: Tim17His (His-tagged Tim17) (S. cerevisiae) (UniProt P39515)
T3 sequence: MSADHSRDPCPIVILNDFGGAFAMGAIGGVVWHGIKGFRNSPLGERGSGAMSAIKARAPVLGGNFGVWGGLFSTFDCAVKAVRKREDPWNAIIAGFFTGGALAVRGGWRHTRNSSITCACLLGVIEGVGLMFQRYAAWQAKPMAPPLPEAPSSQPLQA

B1: Tim17 (protein, UniProt P39515 1-158)
chain: T3 sequence
B2: Pam16 (also termed Tim16) (protein, UniProt P42949 1-149)
chain: MAHRAFIQVIITGTQVFGKAFAEAYRQAASQSVKQGATNASRRGTGKGEYGGITLDESCKILNIEESKGDLNMDKINNRFNYLFEVNDKEKGGSFYLQSKVYRAAERLKWELAQREKNAKAKAGDASTAKPPPNSTNSSGADNSASSNQ
B3: Pam18 (also termed Tim14) (protein, UniProt Q07914 1-168)
chain: MSSQSNTGNSIEAPQLPIPGQTNGSANVTVDGAGVNVGIQNGSQGQKTGMDLYFDQALNYMGEHPVITGFGAFLTLYFTAGAYKSISKGLNGGKSTTAFLKGGFDPKMNSKEALQILNLTENTLTKKKLKEVHRKIMLANHPDKGGSPFLATKINEAKDFLEKRGISK
B4: Atp12 (assembly factor) (protein, UniProt P22135 33-325)
chain: DNTIENNTPTETNRLSKTSQKFWEKVSLNRDVEKGKIALQLDGRTIKTPLGNGIIVDNAKSLLAYLLKLEWSSLSSLSIKTHSLPLTSLVARCIDLQMTNEPGCDPQLVAKIGGNSDVIKNQLLRYLDTDTLLVFSPMNEFEGRLRNAQNELYIPIIKGMEEFLRNFSSESNIRLQILDADIHGLRGNQQSDIVKNAAKKYMSSLSPWDLAILEKTVLTTKSFICGVLLLENKKDTANLIPALKTDMDNIVRAATLETIFQVEKWGEVEDTHDVDKRDIRRKIHTAAIAAFKQ
B5: Atp11 (assembly factor) (protein, UniProt P32453 41-318)
chain: QKYRKKLLEEAQKQGFNSIEELKNHLKETIESKKREFNKIDPLKELEDYQQKTQMENNNSKHLMTKSRSPLDPSAPKVPFKTLDSFLDVGKLKDLSKQEVEFLWRARWAQKDNTLCAVIPVSVYDKMMANARNNPIFVLPLPRQVQSEDAKPNEEQGMELHYIQWQFVGPQTTHCMMTSLAEYKLHQEFARPHTTLQFHSDLVKDKGIVFMNGHVEPDTNVNVQDAQLLLLNVQRFYGAMGEETPVAKQRVQLLRDFSKASPGFTVEKLISLSQSMEN
B6: Atp5 (oligomycin sensitivity conferring protein, OSCP) (protein, UniProt P09457 18-212)
chain: ASKAAAPPPVRLFGVEGTYATALYQAAAKNSSIDAAFQSLQKVESTVKKNPKLGHLLLNPALSLKDRNSVIDAIVETHKNLDGYVVNLLKVLSENNRLGCFEKIASDFGVLNDAHNGLLKGTVTSAEPLDPKSFKRIEKALSASKLVGQGKSLKLENVVKPEIKGGLIVELGDKTVDLSISTKIQKLNKVLEDSI
B7: Atp4 (subunit b of the ATP synthase) (protein, UniProt P05626 36-244)
chain: MSSTPEKQTDPKAKANSIINAIPGNNILTKTGVLGTSAAAVIYAISNELYVINDESILLLTFLGFTGLVAKYLAPAYKDFADARMKKVSDVLNASRNKHVEAVKDRIDSVSQLQNVAETTKVLFDVSKETVELESEAFELKQKVELAHEAKAVLDSWVRYEASLRQLEQRQLAKSVISRVQSELGNPKFQEKVLQQSISEIEQLLSKLK
B8: Tim23 (protein, UniProt P32897 1-222)
chain: MSWLFGDKTPTDDANAAVGGQDTTKPKELSLKQSLGFEPNINNIISGPGGMHVDTARLHPLAGLDKGVEYLDLEEEQLSSLEGSQGLIPSRGWTDDLCYGTGAVYLLGLGIGGFSGMMQGLQNIPPNSPGKLQLNTVLNHITKRGPFLGNNAGILALSYNIINSTIDALRGKHDTAGSIGAGALTGALFKSSKGLKPMGYSSAMVAAACAVWCSVKKRLLEK
B9: Atp5, mildly overexpressed from a galactose-inducible promoter (untagged) (protein, UniProt P09457 18-212)
chain: B6 chain
B10: Atp5^G183A, mildly overexpressed from a galactose-inducible promoter (untagged) (protein, UniProt P09457 18-212)
chain: B6 chain with G166A

Numbering of substitutions follows the chain as printed. In names and notes the source's numbering stands. Results are given in words; binding and its absence hold for the method and conditions named. Binding seen in cells or lysates may run through a third protein. Some entries that bind do so weakly or less than the wild type. For some of these results: Sequences can lack the tags named with a protein.

For one test, the target named is His-tagged mitochondrial Hsp70 (mtHsp70His) (S. cerevisiae) (UniProt P0CS90). Briefly: pull-down; mtHsp70His purified on Ni-NTA agarose from digitonin-lysed ρ+ and ρ0 mitochondria, in the absence of ATP; SDS-PAGE and immunodetection.
Turning to B1, the binding entry was “binds”.
Consider B2, for which the binding entry was “binds”.
B3: the binding entry is listed as “binds”.
Regarding B4, the binding entry is “binds”.
On the same count and under the same terms, to B5 belongs “binds”.
With B6, the binding entry is listed as “binds”.

The target of another test is T1, His-tagged Ina22 (Ina22His) (S. cerevisiae). Briefly: pull-down; Ina17His or Ina22His purified on Ni-NTA agarose from digitonin-lysed mitochondria; also with pre-incubation of the lysate with ATP and with elution of bound proteins by 20 mM ATP; SDS-PAGE and immunodetection.
Take B7: the binding result is given as “binds”.
With B6, the binding entry was “binds”.

The target of another test is T2, His-tagged Ina17 (Ina17His) (S. cerevisiae). The description is as above.
Turning to B7, the binding entry is listed as “binds”.
Consider B6, for which the binding result was “binds”.

Another test concerns the target T3, Tim17His (His-tagged Tim17) (S. cerevisiae). Briefly: pull-down; mitochondria with the His-tagged bait lysed in 1% digitonin (20 mM Tris/HCl pH 7.4, 0.1 mM EDTA, 50 mM NaCl, 10% glycerol, 10 mM imidazole), bound to Ni-NTA agarose 1 h at 4 °C, washed with 40 mM imidazole, eluted with 250 mM imidazole; SDS-PAGE and immunodetection; WT mitochondria as control.
Consider B8, for which the binding result is “binds”.
B6: the binding entry is reported as “no binding”.

The next test has as its target Atp1His (His-tagged Atp1) (S. cerevisiae) (UniProt P07251). The test is described as above.
For B1, the binding result is “no binding”.
B8: the binding result is “no binding”.

The target of a further test is mitochondrial Hsp70 (mtHsp70), wild type (S. cerevisiae (endogenous in yeast mitochondria)) (UniProt P0CS90). Briefly: pull-down; mtHsp70 with its bound proteins captured on Mge1His-coated Ni-NTA agarose from digitonin lysates of mitochondria (wild type, ρ0, atp3∆, atp4∆, atp5∆, atp7∆, atp14∆, ina17∆, ina22∆, ssc1-62, cells overexpressing Atp5 or Atp5^G183A); SDS-PAGE and immunodetection.
With B1, the binding entry was “binds”.
Take B2: the binding entry is “binds”.
Regarding B3, the binding result is “binds”.
As for B4, the binding result is recorded as “binds”.
As for B5, the binding result is “binds”.
Consider B6, for which the binding entry is “binds”.
B9: the binding entry is “binds”.
Turning to B10, the binding entry was “binds”.
